From article PMC4336329 (PLoS ONE, 2015)
Out of some 310,000 compounds screened, about 14,000 (4.5%) showed an effect of 50% or more. The effect is printed as a negative number. This is one part of the list.

These compounds were tested against human ether-à-go-go-related gene (hERG) potassium channel (human, UniProt Q12809) (assay: primary screen, population patch clamp on CHO cells stably expressing hERG).
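Also: peak tail current of the secondary pulse compared with the same well before compound.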

Sequence of human ether-à-go-go-related gene (hERG) potassium channel (Q12809 whole entry, looked up): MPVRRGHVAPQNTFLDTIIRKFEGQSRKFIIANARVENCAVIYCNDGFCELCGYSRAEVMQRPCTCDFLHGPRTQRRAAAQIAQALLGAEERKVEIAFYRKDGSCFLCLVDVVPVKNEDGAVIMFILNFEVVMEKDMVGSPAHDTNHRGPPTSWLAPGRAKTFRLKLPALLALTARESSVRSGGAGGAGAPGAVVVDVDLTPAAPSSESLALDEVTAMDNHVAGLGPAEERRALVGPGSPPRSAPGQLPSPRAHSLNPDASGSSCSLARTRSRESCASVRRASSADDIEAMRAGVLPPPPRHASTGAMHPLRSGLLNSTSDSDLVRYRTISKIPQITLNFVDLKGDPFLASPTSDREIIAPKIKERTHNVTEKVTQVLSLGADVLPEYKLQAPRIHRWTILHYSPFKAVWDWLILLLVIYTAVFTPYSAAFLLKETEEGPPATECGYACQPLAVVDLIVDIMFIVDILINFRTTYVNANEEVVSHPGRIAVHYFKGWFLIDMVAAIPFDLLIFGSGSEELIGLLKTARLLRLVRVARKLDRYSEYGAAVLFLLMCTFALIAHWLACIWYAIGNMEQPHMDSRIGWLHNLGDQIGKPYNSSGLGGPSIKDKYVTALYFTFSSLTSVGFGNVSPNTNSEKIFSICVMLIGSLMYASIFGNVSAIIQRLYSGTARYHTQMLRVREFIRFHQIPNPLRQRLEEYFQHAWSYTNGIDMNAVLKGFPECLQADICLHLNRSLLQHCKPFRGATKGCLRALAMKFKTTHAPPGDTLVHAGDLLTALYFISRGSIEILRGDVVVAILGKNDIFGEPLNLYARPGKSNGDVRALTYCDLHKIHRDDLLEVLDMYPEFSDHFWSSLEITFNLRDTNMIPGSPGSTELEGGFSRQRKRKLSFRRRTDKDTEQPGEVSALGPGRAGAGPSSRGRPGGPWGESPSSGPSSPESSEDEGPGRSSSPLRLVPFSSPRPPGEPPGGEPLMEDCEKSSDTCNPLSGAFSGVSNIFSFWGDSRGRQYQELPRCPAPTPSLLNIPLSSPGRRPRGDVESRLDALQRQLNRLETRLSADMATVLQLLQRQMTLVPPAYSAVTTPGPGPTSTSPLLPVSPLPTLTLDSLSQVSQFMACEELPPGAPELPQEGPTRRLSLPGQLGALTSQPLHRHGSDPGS

SMILES | hERG current change (%, negative = inhibition) at 10uM [%]
Cl.Oc1cccc(Nc2c3ccccc3nc3ccccc23)c1 | -17.6
COc1cccc(C(=O)Nc2ccc(C(F)(F)F)n(C)c2=O)c1 | 8.2
Cc1cccc(N2CCN(C(=S)NCc3ccco3)CC2)c1C | -5.6
NC(=O)c1ccsc1NC(=O)COC(=O)c1ccc([N+](=O)[O-])o1 | -7.98
O=C(CCS(=O)(=O)Cc1ccccc1F)NCCc1ccc(Cl)cc1 | -40
CCN(CC)CCCN(Cc1cc2cc3c(cc2[nH]c1=O)OCO3)C(=S)NC | 15.2
COc1ccc(NC(=O)c2ccccc2NC(=O)C2CC=CCC2C(=O)O)cc1 (stereo not shown) | 15.6
Cl.O=C(NC1CCN(Cc2ccccc2)CC1)c1ccccc1OCc1ccccc1 | -69.3
O=C1CN(c2ccc(Cl)cc2)C2(CCCCC2)S1 | 4.49
CCCCn1nnnc1SCC(=O)Nc1ccc2c(c1)OCCO2 | 4.94
O=C(Nc1ccc(Br)cc1)c1ccc(N2C(=O)C3CCCCC3C2=O)cc1 (stereo not shown) | 2.32
Cc1cc(NC(=O)c2cccc(S(=O)(=O)N3CCCCC3)c2)no1 | 9.82
O=C(c1ccc2oc(CCCc3ccccc3)nc2c1)N1CCCC1 | 17.5
CCc1cccc(NC(=O)CSCc2cc(=O)[nH][nH]2)c1 | 5.74
O=C(NCCOCC(F)(F)C(F)F)c1cc(F)c(F)cc1Cl | -35.3
Nc1nc2ccc(O)cc2s1 | -9.85
Clc1ccc(CSc2nccn2Cc2ccccc2)cc1 | -6.43
Cc1cc(N/N=C/c2cccc(Cl)c2)nc(-n2nc(C)cc2C)n1 | 1.83
CC1CCc2sc(C(=O)Nc3nnc(SCc4ccc(F)cc4)s3)cc2C1 (stereo not shown) | 14.9
CCC1Oc2ccc(C)cc2N(CC(=O)NCCC2=CCCCC2)C1=O (stereo not shown) | -16

SMILES | hERG current change (%, negative = inhibition) at 10uM [%]
C[C@H]1C[C@@H]2[C@H]([C@@H](O)C[C@@]3(C)[C@H]2CC[C@]3(O)C(=O)CO)[C@@]2(C)C=CC(=O)C=C12 | 5.71
N#Cc1c(-c2ccccc2)nc(-c2ccccc2)nc1N1CCOCC1 | 22
CC(C)Nc1nc(NC(C)C)nc(OCCOC(=O)Nc2ccccc2)n1 | -24.5
Cc1ccccc1OCc1nc(-c2ccccc2)no1 | 8.35
CCOc1ccc(NC(=O)CC(c2ccccc2)c2ccc(F)cc2)cc1 (stereo not shown) | 18.4
Cc1ccc(OCc2ccc(C(=O)Nc3ccc(S(N)(=O)=O)cc3)o2)cc1 | 12.4
Cl.FC(F)(F)Oc1ccc(C2NCc3ccccc3-n3cccc32)cc1 (stereo not shown) | 24.1
Cc1cccc(N=C2NC(=O)c3cc([N+](=O)[O-])ccc32)c1 | 0.596
C=CCC1(CC=C)CCCN1C(=O)c1cc(COc2ccc(F)c(F)c2)on1 | 9.46
COc1ccc(C(=O)NC(=S)NCCc2ccccc2)cc1 | -7.05
Cc1cc(C)n2nc(SCc3cc(=O)oc4ccc5ccccc5c34)nc2n1 | -13.2
O=c1c(Cl)c(N2CCOCC2)cnn1-c1nc2ccccc2[nH]1 | 14.7
Cc1cc(C)c(S(=O)(=O)N2CCCCC2CCNC(=O)C(=O)NC2CC2)c(C)c1 (stereo not shown) | -24.4
CNC(=O)c1ccsc1NC(=O)c1coc2ccccc2c1=O | 8.7
COc1ccc(NC(=O)NNC(=O)COc2ccc3cc(Br)ccc3c2)c(OC)c1 | 19.2
Cc1cc(=O)oc2c(C(=O)c3ccccc3)c(OCC(N)=O)ccc12 | -3.82
CC(=O)Nc1c(N)c2ccccc2oc1=O | 16.8
Cc1[nH]c2ccccc2c1C(=O)C(C)OC(=O)C1CCC1 (stereo not shown) | -12.4
COc1ccc(N2CCN(CC(O)COc3cc(C)ccc3C)CC2)cc1.Cl (stereo not shown) | -33.8
CCOC(=O)/C=C/C(=O)Nc1ccc(-c2nnc3n2CCCCC3)cc1 | 8.59

SMILES | hERG current change (%, negative = inhibition) at 10uM [%]
O=C(CSc1nnc(CN2CCOCC2)n1-c1ccc(Cl)cc1)Nc1cc(Cl)ccc1O | -0.469
Cc1ncc(CO)c2cc(C(=O)Nc3ccccc3Cl)c(=Nc3cccc(C(N)=O)c3)oc12 | 6.78
Cc1csc(NC(=O)Nc2ccccc2[N+](=O)[O-])n1 | 13.3
O=S1(=O)N[C@@H](CC2=CCCCC2)C2CCCCC2O1 (stereo partly shown) | -1.07
CCOC(=O)c1cccc(C(=O)Oc2ccccc2)n1 | 14.6
CCCn1c(CNS(=O)(=O)c2ccc(C)cc2)nc2ccccc21 | -31.3
CNC(=O)c1nn(-c2ccccc2)ccc1=O | -1.51
O=C1CCC[C@H]2c3[nH]c4ccccc4c3CCN12 | 0.816
COC(=O)c1ccc([C@H]2CC(=O)O2)cc1 | 1.35
COC(=O)c1cc(S(=O)(=O)NCc2ccc(F)cc2)cn1C | -5.38
CN(C)CCNC(=O)Nc1ccc(F)cc1F | 38.7
Cc1nc(C(=O)NC2CC2)sc1C1(C)CC(c2ccccc2)=NO1 (stereo not shown) | -8.63
COc1ccc(N(C(C)=O)C2C=CS(=O)(=O)C2)c(OC)c1 (stereo not shown) | 9.14
COCC1CCCN(Cc2nc(-c3ccc4c(c3)OCO4)no2)C1 (stereo not shown) | -5.71
CCOC(=O)C1CCN(S(=O)(=O)c2ccc3[nH]c4c(c3c2)CCCC4)CC1 | 9.82
COc1ccc(NC(=O)COC(=O)C2CC(=O)N(Cc3ccc(C)cc3)C2)cc1 (stereo not shown) | -12.7
COc1cc(NS(=O)(=O)c2cn(C)cn2)cc(OC)c1 | 15.6
COc1ccc(NC(=O)CCc2nnc3ccc(NCc4ccco4)nn23)cc1OC | 9.85
